“And” between values parts separate entries of the source, which are not always exact repeats. Identical values can stand only once.
Molecular target: p10-flu-BP (synthetic construct)

Q: galectin-3 (no sequence given) was tested. Which Kd did it give?
A: 1160 nM and 4740 nM

Source: publication PMC7097893
